# Whole data set: some 110,000 compounds, median “z-score” near -0.1, cut for the highest 2% near 2. The list shows a part of the results.
# Biological target: Metabotropic glutamate receptor 8 (Rattus norvegicus) (UniProt P70579)
# Test: mGluR8 Gi/Go-coupled signaling modulation – cell-based, rat, thallium flux, HTS, primary screen (AID 488969)
# Details: HEK293 rat mGluR8, GIRK (G protein-gated inwardly rectifying potassium channel) thallium flux, FluoZin2; at 10 µM; stronger effect = higher value; submaximal glutamate (EC20) added with thallium
# UniProt P70579, sequence (P70579 whole entry, looked up): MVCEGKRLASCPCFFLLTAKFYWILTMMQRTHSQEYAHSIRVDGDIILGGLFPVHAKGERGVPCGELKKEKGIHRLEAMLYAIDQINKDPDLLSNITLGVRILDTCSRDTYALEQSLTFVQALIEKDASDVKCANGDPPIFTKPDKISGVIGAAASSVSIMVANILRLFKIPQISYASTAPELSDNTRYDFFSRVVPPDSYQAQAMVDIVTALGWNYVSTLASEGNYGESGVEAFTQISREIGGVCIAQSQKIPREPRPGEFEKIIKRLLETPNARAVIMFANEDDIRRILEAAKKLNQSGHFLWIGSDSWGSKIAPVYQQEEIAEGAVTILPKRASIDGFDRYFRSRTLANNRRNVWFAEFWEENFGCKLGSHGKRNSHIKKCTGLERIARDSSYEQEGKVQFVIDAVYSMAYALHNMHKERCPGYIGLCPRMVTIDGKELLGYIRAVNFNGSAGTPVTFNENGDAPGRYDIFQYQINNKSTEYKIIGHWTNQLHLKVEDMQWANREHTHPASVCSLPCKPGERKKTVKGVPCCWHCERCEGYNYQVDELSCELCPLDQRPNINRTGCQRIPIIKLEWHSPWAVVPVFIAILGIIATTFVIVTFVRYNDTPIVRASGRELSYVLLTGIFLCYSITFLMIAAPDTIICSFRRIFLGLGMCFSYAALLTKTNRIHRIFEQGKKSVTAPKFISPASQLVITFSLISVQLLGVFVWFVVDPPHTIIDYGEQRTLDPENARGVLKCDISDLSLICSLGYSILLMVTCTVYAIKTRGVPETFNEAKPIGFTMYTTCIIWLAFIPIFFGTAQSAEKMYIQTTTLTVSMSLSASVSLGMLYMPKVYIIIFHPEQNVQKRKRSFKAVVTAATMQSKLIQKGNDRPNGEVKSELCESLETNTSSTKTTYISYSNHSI
row,SMILES,z-score
1,O=C(CN1CCN(c2ccccc2F)CC1)Nc1ccc2c(c1)CCC2,0.206
2,Cc1ccc(-c2n[nH]c(=S)n2C)cc1,0.774
3,C=C(c1ccc(OC)cc1)c1ccc(OC)cc1,0.871
4,Cc1ccc(C)c(S(=O)(=O)NCCCn2ccnc2)c1,-0.00334
5,Cc1ccc(OCC(=O)NNC(=O)c2ccoc2C)c(Br)c1,0.768
6,CCOC(=O)CSc1c(-c2ccc(Cl)cc2)[nH]c2ccccc12,0.0738
7,CCC(=O)Nc1ccc(NC(=O)CSc2nnnn2-c2cccnc2)cc1C,0.513
8,CC(=O)c1cccc(NS(=O)(=O)c2ccc(N/C=C\C(=O)c3ccc(C)cc3)cc2)c1,-0.19
9,CC(C)C(=O)Nc1ccc(C(=O)NNC(=S)NC(=O)c2cccs2)cc1,-0.129
10,CCn1c(SCC(=O)N2CCCC(C)C2)nnc1-c1ccc(S(=O)(=O)N2CCN(C)CC2)cc1 (stereo not given),-0.338
11,O=C(c1ccc(C(=O)N2CCOCC2)s1)N1CCOCC1,-0.597
12,CC1=CC(C)(C)N(C(=O)CSc2nnc(-c3ccc(C)cc3)o2)c2ccc(C)cc21,-0.223
13,Clc1ccc(-c2nnc(-c3ccccc3)c(N3CCSCC3)n2)cc1,-0.125
14,CCOC(=O)N1CCN(c2ccc(C(=O)c3cccc(F)c3)cc2)CC1,0.406
15,Cc1ccc(CSCC(=O)NN=C2CCN(C)CC2)cc1,-0.00381
16,Cc1ccccc1OCc1nc(-c2ccc(NC(=O)c3ccco3)cc2)no1,0.102
17,CCCn1nc(NC(=O)c2ccccn2)c2cc3cc(C)ccc3nc21,-0.118
18,CC(C)OP(=O)(c1ccc(N(C)C)cc1)C(O)c1c(Cl)cccc1Cl (stereo not given),0.0683
19,Cc1ccc(Cn2cc(S(=O)(=O)c3ccc(C(C)C)cc3)c(=O)c3cc4c(cc32)OCO4)cc1,-0.14
20,N#CC1=C(N)N(c2ccccc2)C2=C(C(=O)CCC2)C1c1ccccc1 (stereo not given),-0.829
21,Cc1cc(C(=O)Nn2cnnc2)cs1,-0.0967
22,COC(=O)Nc1ccc(S(=O)(=O)N2CCCC(C(=O)Nc3cccnc3)C2)cc1 (stereo not given),-0.145
23,CNc1nc(Sc2ccccc2)cc(C(F)(F)F)n1,-0.198
24,Cc1cnc(-c2nnc(N(C)C(=O)C3CCOC3)s2)cn1 (stereo not given),-0.337

row,SMILES,z-score
1,CNC(=O)c1csc(-c2ccccc2)n1,-0.0403
2,O=C(N/N=C\c1ccc(CNS(=O)(=O)c2ccc(Cl)cc2)o1)C(=O)Nc1ccc(Oc2ccccc2)cc1,-0.00241
3,CCOc1ccc(NC(=O)CSc2nnc(COc3c(C)cccc3C)o2)cc1,-0.0696
4,CCC(C)(C)NC(=O)c1ccc(Br)o1,-0.122
5,COc1ccc(C(CC(=O)Nc2cc([N+](=O)[O-])ccc2OC)c2ccccc2)cc1 (stereo not given),-0.424
6,O=C(Nc1ccccc1)OC1C2CCC1C(N1CCCCC1)CC2 (stereo not given),0.741
7,COc1ccc(-c2noc(CSc3nnc(Cc4ccccc4)n3-c3cccc(C)c3)n2)cc1OC,0.642
8,Cc1noc(C)c1S(=O)(=O)Nc1ccc(C(=O)NCc2ccccc2)cc1,0.00682
9,COc1cc(C=O)ccc1OCCCOc1ccc([N+](=O)[O-])cc1,-0.12
10,COc1cccc(NC(=O)C2CC(=O)n3cnnc3S2)c1 (stereo not given),0.794
11,COC(=O)Nc1ccc(S(=O)(=O)n2cnc3ccccc32)cc1,1.02
12,CC1(C)CC(=O)C(C=NCC2CCN(C(=O)Nc3ccc(Cl)c(Cl)c3)CC2)=C(O)C1,-0.0391
13,CC1(C)Cc2c(sc3ncnc(N)c23)CO1,0.0601
14,O=C1c2ccsc2SCCN1Cc1ccc(Cl)cc1,-0.992
15,Cc1ccc(C(C2=C(O)CC(C)(C)CC2=O)C2C(=O)CC(C)(C)CC2=O)s1 (stereo not given),-0.265
16,CC(=O)c1c(C)[nH]c(C(=O)COC(=O)c2ccc3c(=O)n4c(nc3c2)CCC4)c1C,0.28
17,O=C(Nc1nc(-c2ccc(-c3ccccc3)cc2)cs1)C1=COCCO1,0.163
18,O=c1c(-c2nnc(SCc3ccc(Cl)cc3Cl)o2)cccn1Cc1ccccc1,-0.0583
19,CCCCn1c(=O)c(-[n+]2ccccc2)c([O-])c2ccccc21,-0.0372
20,Cc1ccc(-c2nn(C)c(=O)c3ccccc23)cc1S(=O)(=O)N1CCOCC1,-0.489
21,COc1ccc(CCNC(=O)c2cc(S(=O)(=O)N(C)c3ccccc3)ccc2Cl)cc1,-0.215
22,COc1ccc(N=Cc2c(O)[nH]c3ccccc23)cc1,0.0644
23,COc1cc(NC(=S)NC(=O)c2ccccc2C)ccc1NC(=O)c1cccs1,-0.0395
24,CC(=O)c1ccccc1NC(=O)CSc1nnc2ccccn12,-0.019

row,SMILES,z-score
1,O=C(O/N=C1/CCSc2ccccc21)c1ccccc1,-0.25
2,O=C(NCCN1CCN(c2ccccc2F)CC1)C1CCCN(S(=O)(=O)c2cnc[nH]2)C1 (stereo not given),0.0568
3,COc1ccc(-c2n[nH]c(=S)n2Cc2ccco2)cc1,0.75
4,CCC(C)NC(=O)c1[nH]c(C)c(C(=O)OC)c1C (stereo not given),0.74
5,CC1(C)N=C(/C=N/O)C=[N+]1[O-],0.315
6,COc1ccc(OC)c(N(CC(=O)Nc2ccccc2C(=O)NCc2ccco2)S(C)(=O)=O)c1,-0.0286
7,O=C(Nc1ccc(O)c(-c2nc3ccccc3o2)c1)C1(c2ccccc2)CCCC1,-0.12
8,COc1ccccc1OCC(=O)NNC(=S)NC(=O)c1ccco1,0.0517
9,COc1ccc(C(=O)c2ccc(CC#N)s2)cc1,-0.0619
10,CC1(C)CC2(CCCN3C(=O)CSC32)CCS1 (stereo not given),0.0173
11,O=C(COc1ccc2ccccc2c1)N1CCN(c2ccccc2O)CC1,-0.302
12,CCOc1ccc(C2=Nn3c(nnc3-c3ccco3)SC2)cc1,-0.274
13,O=C(c1cccs1)N1CCOCC1,0.243
14,N#C/C(=N\Nc1ccc(F)cc1)C(=N)N1CCCCC1,-0.376
15,Cc1c(NS(=O)(=O)c2ccc3c(c2)n(C)c(=O)n3C)c(=O)n(-c2ccccc2)n1C,-0.339
16,O=C(C[n+]1ccc(C(=O)N/N=C/c2ccc(OCc3ccccc3)cc2)cc1)c1ccccc1,-0.252
17,COc1ccc(OC)c2[nH]c(C(=O)O)cc12,0.861
18,CCOc1ccc2c(C)c(Cl)c(=O)oc2c1,-0.382
19,COc1ccc(C(=O)Nc2nc3c(s2)CCCC3)cc1S(=O)(=O)N1CCCc2ccccc21,-0.123
20,O=C(CSc1ncnc2c1cnn2-c1ccccc1Cl)N1CCN(C(=O)c2ccco2)CC1,-0.9
21,COc1ccccc1N(C)S(=O)(=O)c1ccc(C(=O)N2CCC(C(N)=O)CC2)cc1,-0.147
22,O=C(O)CCCC(=O)Nc1ccc(Br)cc1,0.0741

# Reference: PubChem BioAssay AID488969 (Vanderbilt High Throughput Screening Facility, 2010)
